From the supplement of paper PMC3334620
In all, about 33,000 sequences were measured (“E-score (-0.5 to 0.5)”: median about -0.016, highest 2% from about 0.32 on). This is one part of the list.

biological target: T1, Stp1 (UniProt B3LFK1); test: PBM E-score (8-mer binding enrichment) (E-score (-0.5 to 0.5)); higher = stronger / more preferred TF binding; most listed sequences are background and not binding sites; conditions: protein concentration: 200 nM; construct: GST-full length
T1 sequence: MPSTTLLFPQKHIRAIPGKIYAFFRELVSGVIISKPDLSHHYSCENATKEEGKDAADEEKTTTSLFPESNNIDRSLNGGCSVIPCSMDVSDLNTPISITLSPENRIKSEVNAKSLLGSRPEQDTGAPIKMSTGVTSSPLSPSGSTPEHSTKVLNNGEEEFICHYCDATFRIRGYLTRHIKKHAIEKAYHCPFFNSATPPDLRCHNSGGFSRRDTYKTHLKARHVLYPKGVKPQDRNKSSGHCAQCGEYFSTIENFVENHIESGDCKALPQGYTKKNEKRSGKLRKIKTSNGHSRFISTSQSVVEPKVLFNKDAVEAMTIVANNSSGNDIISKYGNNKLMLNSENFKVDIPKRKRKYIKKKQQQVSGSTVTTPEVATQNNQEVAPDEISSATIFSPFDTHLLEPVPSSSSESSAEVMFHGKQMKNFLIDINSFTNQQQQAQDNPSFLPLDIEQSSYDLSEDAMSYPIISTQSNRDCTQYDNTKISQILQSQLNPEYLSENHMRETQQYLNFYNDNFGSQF
Procedure: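 Universal 'all 10-mer' protein binding microarrays (Agilent AMADID 015681) probed with GST-tagged S. cerevisiae TFs (full-length or DBD) made by in vitro transcription/translation (PURExpress), about 100-200 nM. Bound TF was detected with fluorescent anti-GST. Each ungapped 8-mer (which stands for itself and its reverse complement) is scored by the PBM enrichment score (E-score), a modified Wilcoxon-Mann-Whitney statistic from -0.5 to +0.5, computed with the Universal PBM Analysis Suite. Scale: above 0.35 generally sequence-specific binding.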

Row | Sequence | PBM E-score
1 | GATCCCGC | -0.0668
2 | CGAGATCG | -0.0492
3 | AATCCCAT | -0.191
4 | TAATTGAA | 0.107
5 | ACGGTACC | 0.118
6 | ATGTACAA | 0.115
7 | ACTGCCAT | 0.0701
8 | TAACCAGA | -0.058
9 | CGCTCCTC | -0.144
10 | CTCCAGTA | -0.00483
11 | CTATGCAA | -0.0966
12 | ACAATATA | 0.18
13 | AGGCTGTA | 0.0388
14 | ACAAAGAT | 0.149
15 | CGTACCCC | -0.0145
16 | GTCGCAAA | 0.155
17 | GGGAGGCA | 0.00612
18 | ATCCTCTC | -0.11
19 | GCACATCC | -0.023
20 | CGTTCCGA | 0.0281
21 | ACCGGGAT | -0.384
22 | ACCCTACG | -0.112

Row | Sequence | PBM E-score
23 | AGTCATAC | -0.102
24 | CGACCAGC | -0.133
25 | CCACAACA | 0.0345
26 | ACATGGAA | -0.0118
27 | ACACCGGT | -0.141
28 | GAGTCACA | -0.0824
29 | AATTCCTA | 0.0887
30 | CTAGGCAG | -0.11
31 | ACATTATC | 0.0248
32 | AAGCTCTC | -0.133
33 | AGTGGGGA | -0.203
34 | TCCTACGA | -0.249
35 | TTCCCGAA | -0.00196
36 | CCCGTATA | 0.12
37 | ATGTCTCA | -0.133
38 | ATATATAA | 0.284
39 | CCTTTTAG | -0.113
40 | AAATTGAC | 0.065
41 | ACGCTATA | -0.0998
42 | ACTGTGTA | -0.0229
43 | ATATTTTG | 0.0588
44 | AGTTACTC | 0.107

Row | Sequence | PBM E-score
45 | CATAGGGA | 0.0911
46 | CCCCCTCA | -0.365
47 | ACAAAGAC | 0.0546
48 | GCTGTGTA | 0.0044
49 | CTCTAAGC | 0.0166
50 | GCACGTAC | 0.141
51 | ACACTTTC | -0.148
52 | ATACAAAA | 0.193
53 | ATGCGAGC | -0.0578
54 | CCACACTC | -0.185
55 | ACTCTGCT | -0.293
56 | ACGCAGTG | -0.0766
57 | ACCCCAAC | -0.0995
58 | ACGTGGAT | 0.0437
59 | CATCAGTC | -0.0756
60 | ACCTAGGC | -0.245
61 | CCGAATAG | -0.0446
62 | GTAGTGAA | 0.0459
63 | TAGGCTAA | -0.0054
64 | CGCTCCGC | 0.242
65 | CCAGCACA | -0.245
66 | CCCACATA | -0.342

Row | Sequence | PBM E-score
67 | ATTTCTAG | 0.109
68 | ACCCAGGA | -0.132
69 | CAGTTCAA | -0.0159
70 | AACCAAAA | 0.066
71 | GAACAAAA | 0.252
72 | CACTATCA | 0.0484
73 | TCTTTGAA | 0.0181
74 | AGAGGTAT | 0.184
75 | ATCCTTTA | 0.13
76 | ATTTATGA | 0.163
77 | GTGTATGA | 0.0678
78 | ATGATCGG | -0.0283
79 | ACGGTTAA | 0.0599
80 | CACAAGTG | 0.0151
81 | AATCTGCA | -0.112
82 | CACGCGAA | -0.112
83 | ACAGGCGC | 0.116
84 | AGCAGAAG | -0.0798
85 | GAAGGATA | -0.186
86 | GTGTAGGA | -0.00643
87 | AGATTGAC | -0.0239
88 | GACGTAAC | -0.129

Row | Sequence | PBM E-score
89 | AAATTATC | 0.213
90 | CGTTTGAC | 0.0103
91 | CGAGTCAC | -0.0751
92 | CCGCGAGA | -0.0951
93 | GCGGGTTA | 0.18
94 | GAGCGCAA | -0.277
95 | TCGTATCA | 0.0263
96 | AGTCCAGC | -0.0462
97 | CATCAAGC | 0.0726
98 | ATTCGGCA | 0.251
99 | AATCCTAC | -0.142
100 | ATTTCTAA | -0.00708
101 | CCCAGAAC | -0.161
102 | AGCGCGAC | -0.149
103 | ACCGCTCG | 0.0738
104 | CTAGCTAA | 0.0758
105 | GTTGAGTA | 0.00016
106 | ATTGGGTC | 0.0726
107 | AGTCTTAA | -0.0956
108 | CCATAACA | 0.148
109 | AATTGTGA | 0.116
